Measured values reported in the RNAGym collection of RNA variant scans (doi:10.7554/elife.90254).
The source gives no read counts; variants with many changes may rest on few reads.

B1: LINE1-mini (parent)
chain: GGCAGAGCUCAACACAGCGUGGCAAAGUGGCUGUGGCUAGACUGCC

Variants of: B1
Assay: self-cleavage, relative activity (ratio to wild type); higher = more cleavage; in vitro, sequencing; the parent is a self-cleaving ribozyme

| Variant | self-cleavage |
| --- | --- |
| G5C A24G C37G | 0.03 |
| G5C C13A G21U U28C | 0.04 |
| G5C C8A U32C G36A U43G | 0.03 |
| G5C C8G C42U | 0.02 |
| G5C C18A G27U | 0.02 |
| G5C C23G G36U | 0.06 |
| G5C C10G G30A C46G | 0.02 |
| G5C C31A G35A A39C | 0.02 |
| G5C C8A C13G | 0.09 |
| G5C C8A C13A | 0.07 |
| G5C A24C U32G G40C | 0.01 |
| G5C A16G A24G A41G | 0.01 |
| G5C C8G G27A U28C | 0.02 |
| G5C C15U G33A | 0.16 |
| G5C A16C C18A U28A | 0.02 |
| G5C C8U G35U | 0.35 |
| G5C C23U A26G | 0.03 |
| G5C C13U U34A | 0.11 |
| G5C C31A C42G | 0.06 |
| G5C A25U C46U | 0.02 |
| G5C A16C G33C A39U | 0.13 |
| G5C A26U A41C | 0.02 |
| G5C C13A G27A A39C | 0.02 |
| G5C C31A G35A | 0.03 |

| Variant | self-cleavage |
| --- | --- |
| G5C C13A C23G G33U | 0.02 |
| G5C C31A C42G C46A | 0.02 |
| G5C C18U G29U | 0.04 |
| G5C C13G C15A A26C | 0.01 |
| G5C A24C G36U | 0.03 |
| G5C A25C A41C G44U | 0.05 |
| G5C C8G A39G | 1.06 |
| G5C A14G C31U | 0.03 |
| G5C C8G C23G G30A U38A | 0.18 |
| G5C C23U C37A | 0.09 |
| G5C C10G A39C | 0.02 |
| G5C C15A G21U G33A | 0.05 |
| G5C C23A G33A G44A | 0.13 |
| G5C C8U C10A A11C | 0 |
| G5C C31A U32G | 0.02 |
| G5C C10G A14C C18U A39G | 0.01 |
| G5C C13A G29U G35U | 0.07 |
| G5C A39G C42G | 0.03 |
| G5C A25C G30C C31U | 0.08 |
| G5C C8U U20A G27A G30C C31U C37U C42G U43C | 0.08 |
| G5C C8A G36U C45A | 0.03 |
| G5C C8U G40A | 0.02 |
| G5C C23A G29C | 0.02 |
| G5C C10G A11C G30A | 0.02 |

| Variant | self-cleavage |
| --- | --- |
| G5C C8U C23A G27C | 0.02 |
| G5C C10U U38C C45A | 0 |
| G5C C23G A26U U34G | 0.02 |
| G5C C23A C45G | 0.03 |
| G5C C10A A25U G40U G44U | 0.01 |
| G5C C8G A11C | 0.01 |
| G5C A16C U20G | 0.01 |
| G5C C15A C18A G21A G44U | 0.01 |
| G5C C8U G17A G19A | 0.13 |
| G5C A24G U28G G30A U38C | 0.01 |
| G5C C13U G19U C42A | 0.01 |
| G5C A26C G33A | 0.01 |
| G5C C10U C13G C18G U28C U34G | 0.03 |
| G5C C10G C23A C31U G35C | 0 |
| G5C C10U G40C | 0.02 |
| G5C C8G G44A C45G | 0.02 |
| G5C A25U G30C | 0.02 |
| G5C A24C C37A | 0.01 |
| G5C C13A A25G | 0.05 |
| G5C C13U G27A | 0.09 |
| G5C C8U G22A G33C | 0.03 |
| G5C C23A G27A | 0.03 |
| G5C A24U C31U U34C | 0.32 |
| G5C C8U G27A | 0.04 |

| Variant | self-cleavage |
| --- | --- |
| G5C A14U G17U | 0.06 |
| G5C C10A G19U G29A | 0.01 |
| G5C C15U A24G C37A A41C | 0.06 |
| G5C C18A U32C C42U | 0.05 |
| G5C C13A C45A | 0.08 |
| G5C A25C G27U | 0.01 |
| G5C A25C G35C | 0.03 |
| G5C A24U G27C U28A | 0.02 |
| G5C C31U A41C U43G | 0.03 |
| G5C A14G A41U | 0.07 |
| G5C C23A G36A | 0.05 |
| G5C C18G U20A A26U G40A C45U | 0.24 |
| G5C C8G A12C C23A U28G | 0 |
| G5C A26G G36U | 0.03 |
| G5C C15U A16U U34C | 0.06 |
| G5C A14C U34A | 0.07 |
| G5C A16G U38A A39C C42U | 0.04 |
| G5C A26C U34A | 0.08 |
| G5C C10A G29U U32A | 0.08 |
| G5C C13U G22C A26U U28G A39C | 0.02 |
| G5C C8A G27C G30A | 0.04 |
| G5C C10A U32A | 0.02 |
| G5C A16C G21A | 0.02 |
| G5C C13G G17U | 0.23 |

| Variant | self-cleavage |
| --- | --- |
| G5C C8A A24C G36A A39C | 0.41 |
| G5C C8G G36U G40C | 0.02 |
| G5C A26C G30U G35A A41G C46U | 0.03 |
| G5C A26U U43G | 0.07 |
| G5C C15A G22C | 0.16 |
| G5C C13U A16G G29C C45G | 0 |
| G5C C10A C31G | 0.04 |
| G5C C15U C45A | 0.01 |
| G5C C8U C15U U20A C37A U43A | 0.03 |
| G5C C13G C23U A24U | 0.04 |
| G5C C8A C10U G40U G44U | 0.15 |
| G5C C13U G19A | 0.02 |
| G5C A25U U43A | 0.02 |
| G5C A26C U28C C31A | 0.01 |
| G5C C37A C45U | 0.84 |
| G5C C10G C13G | 0.03 |
| G5C C8A U32G A39G | 0.32 |
| G5C A14G G21C G36U G44C | 0.03 |
| G5C C15G C18U G40A | 0.07 |
| G5C C10A G40U | 0 |
| G5C C15A A24U G33C | 0.02 |
| G5C C10A G36A | 0.03 |
| G5C C10A G36C | 0.05 |
| G5C C13A G22A A26C G30C | 0.05 |

| Variant | self-cleavage |
| --- | --- |
| G5C A16U G22C G35U C46U | 0.11 |
| G5C C23U G29U | 0.13 |
| G5C C8A G17A G19C A25C G40C | 0.03 |
| G5C C8A G40U | 0.14 |
| G5C C10U C15G G22C G30U U32G G44C | 0.01 |
| G5C C15G C18G | 0.01 |
| G5C A14G A16U G22A A25G G44U | 0.03 |
| G5C C8A G22A U38C G40U C45A | 0.1 |
| G5C C10U A24U A25U | 0.02 |
| G5C C8A A16G C18U C23U U32C G33A | 0.04 |
| G5C C15G C18A A25C | 0.03 |
| G5C C15A G21U | 0.03 |
| G5C C13A A25G G30C | 0.17 |
| G5C C8G G22U G40U U43A | 0.11 |
| G5C C15A G17A A26C C45G | 0.01 |
| G5C A25U U28C U32A | 0 |
| G5C C15A A24C G40C | 0.02 |
| G5C A26U G27A C42G | 0.02 |
| G5C C8A U28C | 0.03 |
| G5C C10A C13A C18U C23G G27U | 0.01 |
| G5C A14G G29A G40A C46G | 0.01 |
| G5C A16G G19U A25U | 0.03 |
| G5C C8A A24C | 0.25 |
| G5C C15A G21U G22C | 0.02 |

| Variant | self-cleavage |
| --- | --- |
| G5C C13A U20A U34G | 0.02 |
| G5C C13G C15A A25C | 0.07 |
| G5C C10A C13U U28A C46A | 0.02 |
| G5C C15A G17A G36U A41U | 0.05 |
| G5C C15A G35U G40C | 0.16 |
| G5C C10G A12U A25C G29C G35A C46U | 0.01 |
| G5C A24G A26G G30U U38A | 0.01 |
| G5C C13U C31A | 0.28 |
| G5C C8A C15A A16C G30A C31A | 0.12 |
| G5C C13A A16G | 0.02 |
| G5C A24C G44A | 0.05 |
| G5C C15G G29C G36C | 0.02 |
| G5C C15U C46G | 0.03 |
| G5C C23U C31G | 0.02 |
| G5C C15G A16G G27U G30C A41G | 0.04 |
| G5C A24C G33A | 0.01 |
| G5C C18G A25G | 0.02 |
| G5C C31U G35U A39C | 0.01 |
| G5C A14C G44C | 0.04 |
| G5C C10U G17A | 0.02 |
| G5C C10A U28A C31G G35C G44U | 0.01 |
| G5C C31U U38A | 0.1 |
| G5C A14G U34G | 0.07 |
